# Test results published in PubChem BioAssay AID686978 (National Center for Advancing Translational Sciences (NCATS), 2013).
# Out of some 420,000 compounds screened, about 64,000 (15%) were called active. The shares of active, inactive and inconclusive entries below differ from those in the screen. The call rests on the fitted dose curve; in most records, active means well fitted inhibition curve with a large enough effect; inconclusive means small, poorly fitted or top-dose-only effect; inactive means flat fitted curve, though single readings scatter. Potencies of inconclusive entries are left out as doubtful fits.
# Assay: qHTS for Inhibitors of human tyrosyl-DNA phosphodiesterase 1 (TDP1): qHTS in cells in absence of CPT; further: nearly all actives have a fitted effect of over 55% in size
# Conditions: DT40 Tdp1-/- hTDP1 cells, no CPT, ATP luminescence, 48 h; activity change, negative = growth inhibition: at 46.2 µM (top of the series) unless noted
# Outline: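 Stably hTDP1-transfected Tdp1-null chicken DT40 cells were treated with library compounds minus camptothecin and grown for at least 48 hr at 37 °C, after which cellular ATP was quantified by luminescence.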
# On the % scale 0 is the no-effect control and ±100 the full control effect; potency means the concentration at half of the fitted maximal effect; tags describe the fitted curve by direction and shape.
SMILES,Potency,"activity change, negative = growth inhibition"
CCOc1ccc(N2C(=O)CC(SCc3nc4ccccc4[nH]3)C2=O)cc1 (configuration not stated),"inconclusive [inhibitor, single point]",
COCC(=O)N(Cc1cc2cc(C)ccc2[nH]c1=O)c1ccc(C)c(C)c1,"inconclusive [inhibitor, single point]",
O=C(CCCN1C(=O)S/C(=C\C=C\c2ccccc2)C1=O)Nc1ccc(O)cc1,"inconclusive [inhibitor, partial curve]",
COC(=O)c1ccc(C2c3c(-c4ccccc4O)n[nH]c3C(=O)N2Cc2cccnc2)cc1 (configuration not stated),"inconclusive [inhibitor, single point]",
CCCSc1ncc(Cl)c(C(=O)Nc2ccc(S(=O)(=O)N(C)c3ccccc3)cc2)n1,active: 20.6 µM,
COc1ccc(/C=C/C(=O)c2ccccc2)cc1COc1ccc(F)cc1,active: 20.6 µM,
CCN(C(=O)CSc1nnc(NCCOC)s1)c1c(N)n(Cc2ccccc2)c(=O)[nH]c1=O,,inactive: 0.799%
CSc1ncccc1C(=O)OCC(=O)c1[nH]c(C)c(C(C)=O)c1C,"inconclusive [inhibitor, single point]",
COc1ccc(CN2C(=O)c3cccc4cccc(c34)C2c2nc3ccccc3[nH]2)cc1 (configuration not stated),"inconclusive [inhibitor, single point]",
CC[C@H](C)[C@H]1CNC(=S)N1CC1CCN(CC)CC1,,inactive: 1.35%
Cc1ccc(NC(=O)c2cccnc2)c([N+](=O)[O-])c1,active: 18.4 µM,
CCc1ccc(NC(=O)CSc2nc(=O)n(Cc3ccccn3)c3c2CCC3)cc1,"inconclusive [inhibitor, single point]",
O=C(Nc1nnc(S(=O)(=O)N2CCCc3ccccc32)s1)c1cccc(Cl)c1,active: 18.4 µM,
Cc1cccn2c(CN(C)C3CCCc4ccccc43)c(C(=O)N3CCOCC3)nc12 (configuration not stated),active: 18.4 µM,
CC(Sc1nnc(-c2cccs2)n1-c1ccccc1)C(=O)NCc1ccc2c(c1)OCO2 (configuration not stated),"inconclusive [inhibitor, single point]",
COc1cccc(C2C(C(=O)Nc3ccc(C)cc3C)=C(C)Nc3c(C(=O)Nc4ccccc4)cnn32)c1 (configuration not stated),,inactive: -24%
CC(/C=C/c1ccc2c(c1)OCO2)=N\NC(=O)c1cccc([N+](=O)[O-])c1,active: 14.6 µM,
COc1cccc(CN(C)C(=O)CNC(=O)c2cccs2)c1OC,,inactive: -2.09%
Cn1ccnc1SCC(=O)c1c[nH]c2ccccc12,,inactive: -14.6%
COc1ccc(NC(=O)COc2cccc3c2CCN(C)C3=O)c(OC)c1,"inconclusive [inhibitor, single point]",
CC1CCCN(C(=O)CSc2c3c(nc4cc(Cl)ccc24)CCCC3)C1 (configuration not stated),active: 11.6 µM,
COCCn1c(=O)c(C)nc2cnc(N3CCN(C)CC3)nc21,,inactive: 29.9%
CC(C)(C)NC(=O)C(c1ccccc1F)n1c(=O)c(-c2cc3ccccc3[nH]2)nc2ccccc21 (configuration not stated),active: 13 µM,
CCCCC(=O)N(C)c1c(CC)nc2c(OCc3ccc(C#N)cc3)cccn12,"inconclusive [inhibitor, single point]",

SMILES,Potency,"activity change, negative = growth inhibition"
CCCCC(=O)N/N=C(/C)C1=C(C)C(C)(C)OC1=O,,inactive: 8.13%
O=C(Nc1ccc(Br)cc1)C1CCC(=O)N1Cc1ccccc1Cl (configuration not stated),"inconclusive [inhibitor, single point]",
COCC(=O)NC1CCN(CC(=O)Nc2ccccc2[N+](=O)[O-])CC1,,inactive: -7.41%
O=c1cc(CNc2cc(C(F)(F)F)cc(C(F)(F)F)c2)nc2sccn12,"inconclusive [inhibitor, single point]",
O=C(O)c1cccc(C(=O)Nc2cccc(NC(=O)C3CCCO3)c2)c1 (configuration not stated),,inactive: 2.36%
CN(Cc1cccs1)C(=O)c1ccc(S(=O)(=O)N2CCCCC2)cc1,"inconclusive [inhibitor, partial curve, poor fit]",
N#Cc1nc(COc2ccc(F)cc2)oc1N1CCCCC1,,inactive: 10.9%
O=C(CNC1CCN(Cc2ccccc2)CC1)Nc1ccc(S(=O)(=O)N2CCCCC2)cc1,"inconclusive [inhibitor, single point]",
CCOc1ccccc1-c1nc(CN2CCCN(C(=O)c3ccco3)CC2)c(C)o1,"inconclusive [inhibitor, single point]",
Cc1cccc(CNC(=O)C2CCCN(c3nn4c(=O)cc(C)nc4s3)C2)c1 (configuration not stated),,inactive: 3.06%
Cc1cc(-c2ccccc2)nc2cc(C(=O)NCCCn3ccnc3)nn12,,inactive: 6.56%
COc1ccc(-c2[nH]ncc2CN2CCC(OCc3ccccc3)CC2)c(F)c1,"inconclusive [inhibitor, single point]",
O=S(=O)(NCc1ccccn1)c1cc(OCC(F)(F)F)ccc1OCC(F)(F)F,,inactive: -21.7%
COc1cc(/C=C2/SC(=S)N(CC(=O)Nc3cccnc3)C2=O)cc(OC)c1OC,,inactive: -11.3%
COc1ccc(NC(=O)c2cc(S(=O)(=O)N3CCOCC3)ccc2OC)cc1,,inactive: -3.64%
CCc1cccc(C)c1NS(=O)(=O)c1c(C(=O)N2CCC(C)CC2)c(C)n(C)c1C,"inconclusive [inhibitor, single point]",
O=C(NNC(=S)Nc1ccc(Br)cc1)c1ccccc1,"inconclusive [inhibitor, single point]",
COc1ccc(-c2csc3ncn(-c4ccccc4OC)c(=O)c23)cc1OC,active: 23.1 µM,
Cc1ccc(C)c(NC(=O)N2CCN(C(=O)c3nsc4ccccc34)CC2)c1,active: 18.4 µM,
CC(=O)Nc1ccc(S(=O)(=O)N2CCN(C(=O)CCC3CCCC3)CC2)cc1,"inconclusive [inhibitor, partial curve]",
CCOC(=O)[C@@H](N)CS,"inconclusive [inhibitor, single point]",
COc1cc(Cl)c(C)cc1NC(=O)C1CCN(c2nc3ccccc3n3cccc23)CC1,active: 16.4 µM,
COc1ccc(OC)c(NS(=O)(=O)c2ccc3c(c2)C(C)(C)C(=O)N3C)c1,"inconclusive [inhibitor, single point]",
